Read counts are not given, so values of variants with three or more changes are uncertain.
B1: LINE1-full (parent)
chain: UACGUAGGUGGUUUUCCCCUGAUAGUGCUAAGGGGGCCUGGAAGUUUGGACUGGGCAGAGCUCAACACAGCGUGGCAAAGUGGCUGUGGCUAGACUGCCUCUCUGGAUUCCUCGUCACUCAGCAGGGCAUCUCUGAGAGAAAUGCC

Variants of: B1
Assay: self-cleavage, relative activity (ratio to wild type); higher = more cleavage; in vitro, sequencing; the parent is a self-cleaving ribozyme

Variant	self-cleavage
UACGUAGGUGGUUUUCCCCUGACAGUGCUAAGGGGGCCUGGAAGUUUGGACUGGGCAGAGCUCAACACAGCGUGGCAAAGCGGCUGUGGCUAGACUGCCUCUCUGGAUUCCUCGUCGCUCAGCAGGGCAUCUCUGAGAGAAGUGCC [U23C U81C A117G A142G]	0
UACGUAGGUGGUUUUCCCCUGACAGUGCUAAGGGGGCCUGGAAGUUUGGACUGGGCAGAGCUCAACACAGCGUGGCAAAGAGGCUGUGGCUAGACUGCCUCUCUGGAUUCCUCGUCACUCAGCAGGGCAUCUCUGAGAGAAAAGCC [U23C U81A U143A]	1.72
UACGUAGGUGGUUUUCCCCUGACAGUGCUAAGGGGGCCUGGAAGUUUGGACUGGGCAGAGCUCAACACAGCGUGGCAAAGUGGCUGUGGCUAGACUGCCUCUCUGGAUUCCUCGCCACACAGCAGGGCAUCUCUGAGAGAAAUGCC [U23C U115C U119A]	2.8
UACGUAGGUGGUUUUCCCCUGACAGUGCUAAGGGGGCCUGGAAGUUUGGACUGGGCAGAGCUCAACACAGCGUGGCAAAGUGGCUGUGGCUAGACUGCCUCCCUGGAUUCCUCGUCACUCAGCAGGGCAUCUCUGAGAGAGGUGCC [U23C U102C A141G A142G]	2.3
UACGUAGGUGGUUUUCCCCUGACAGUGCUAAGGGGGCCUGGAAGUUUGGACUGGGCAGAGCUCAACACAGCGUGGCAAAGUGGCUGAGGCUAGGCUGCCUCUCUGGAUUCCUCGUCACUCAGCAGGGCAUCUCUGAGAGAAAUGCC [U23C U87A A94G]	0.27
UACGUAGGUGGUUUUCCCCUGAGAGUGCUGAGGGGGCCUGGAAGUUUGGACUGGGCAGAGCUCAACACAGCGUGGCAAAGUGGCUGUGGCUAGACUGCCUCUCUGGAUUCCUCGUCACUCAGCAGGGCAUCUCUGAGAGGAAUGCC [U23G A30G A140G]	1.67
UACGUAGGUGGUUUUCCCCUGACAGUGCUAAGGGGGCCUGGAAGUUUGGACUGGGCAGAGCUCAACACAGCGUGGCAAAGUGGCUGUGGCUAGACUGCCUCUCUGGAUUCCUCGUCACUCAGCAGGGCAUCUCCGAGGGAAAUGCU [U23C U134C A138G C146U]	1.44
UACGUAGGUGGUUUUCCCCUGACAGUGCUAAGGGGGCCUGGAAGUUUGGACUGGGCAGAGCUCAACACAGCGUGGCAAAGCGGCUGUGGCUAGACUGCCUCACUGGAUUCCUCGUCACUCAGCAGGGCAUCUCUGAGAGAAAUGCC [U23C U81C U102A]	2.76
UACGUAGGUGGUUUUCCCCUGAGAGUGCUAAGGGGGCCUGGAAGUCUGGACAGGGCAGAGCUCAACACAGCGUGGCAAAGUGGCUGUGGCUAGACUGCCUCUCUGGAAUCCUCGUCACUCAGCAGGGCAUCUCUGGGGGAAAUGCC [U23G U46C U52A U108A A136G A138G]	1.93
UACGUAGGUGGUUUUCCCCUGAGAGUGCUAAGGGGGCCUGGAAGUUUGGACUGGGCAGAGCUCAACACAGCGCGGCAAAGUGGCUGUGGCUAGACUGCCUCUCUGGAUUCCUCGUCACUCAGCAGGGCAUCUCUGGGAGAAAUGCC [U23G U73C A136G]	0.8
UACGUAGGUGGUUUUCCCCUGACAGUGCUAAGGGGGCCUGGAAGUUUGGACUGGGCAGAGCUCAACACAGCGUGGCAAAGUGGCUGCGGCUAGACUGCCUCUCUGGAUUCCUCGUCACUCAGCAGGGCAUCUCUGGGAGAAAUGCC [U23C U87C A136G]	0.44
UACGUAGGUGGUUUUCCCCUGAGAGUGCUAAGGGGGCCUGGAAGUUUGGACUGGGCAGAGCUCAACACAGCGUGGCAAAGUGGCUGUGGCUAGACUGCUUCUCUGGAUACCUCGCCACUCAGCAGGGCAUCUCUGAGAGAGAUGCC [U23G C99U U109A U115C A141G]	0.6
UACGUAGGUGGUUUUCCCCUGACAGUGCUAAGGGGGCCUGGAAGUUUGGACUGGGCAGAGCUCAACACAGCGUGGCAAAGUGGCUGUGGCUAGACUGCCUCUCUGGAUUCCUCGCCACUCAGUAGGGCAUCUCUGAGAGAAAUGCC [U23C U115C C123U]	2.01
UACGUAGGUGGUUUUCCCCUGACAGUGCUAAGGGGGCCUGGAAGUUUGGACUGGGCAGAGCUCAACACAGCGUGGCAAAGUGGCUGUGGCUAGACCGCCUCUCUGGAUUCCUCGUCACUCAGCAGGGCAUCCCUGAGAGGAAUGCC [U23C U96C U132C A140G]	0
UACGUAGGUGGUUUUCCCCUGACAGUGCUAAGGGGGCCUGGAAGUUUGGACUGGGCAGAGCUCAACACAGCGUGGCAAAGUGGCUGUGGCUAGACUGCCUCUCUGGAUUCCUCGUCACCCCGCUGGGCAUCUCUGAGAGAAAUGCC [U23C U119C A121C A124U]	1.67
UACGUAGGUGGUUUUCCCCUGACAGUGCUAAGGGGGCCUGGAAGUUUGGACUGGGCAGAGCUCAACACAGCGUGGCAAAGUGGCUGUGGCUAGACAGCCUCUCUGGAUUCAUCGUCACUCAGCAGGGCAUCUCUGAGGGAAAUGCC [U23C U96A C111A A138G]	0.11
UACGUAGGUGGUUUUCCCCUGAGGGUGCUAAGGGGGCCUGGAAGUUUGGACUGGGCAGAGCCCAACACAGCGUGGCAAAGUGGCUGUGGCUAGACUGCCUCACUGGAUUCCUCGUCACUCAGCAGGGCAUCUCUGAGAGAAAUGCC [U23G A24G U62C U102A]	0
UACGUAGGUGGUUUUCCCCUGACAGUGCUAAGGGGGCCUGGAAGUUUGGACUGGGCAGAGCUCAACACAGCGUGGCAAAGUGGCUGUGGCUAGACUGCCUCACUGGAUUCCUCGUCACUCAGCAGGGCAUCUCUGAGAUAAAUGCC [U23C U102A G139U]	1.6
UACGUAGGUGGUUUUCCCCUGACAGUGCUAAGGGGGCCUGGAAGUUUGGACUGGGCAGAGCUCAACACAGCGUGGCAAAGUGGCUGUGGCUAGACUGCCUCUCUGGAUUCCUCGUCACUCAGCAGGGCAUCCCUGGGAGAAAUGCC [U23C U132C A136G]	2.3
UACGUAGGUGGUUUUCCCCUGAGAGUGCUAAGGGGGCCUAGAAGUUUGGACUGGGCAGAGCUCAACACAGCGUGGCAAAGUGGCUGUGGCUAGACAGCCUCUCUGGAUUCCUCGUCACUCAGCAGGGCAUCUCUGAGAGAAAUGCC [U23G G40A U96A]	0.07

From the RNAGym collection of RNA variant scans (doi:10.7554/elife.90254)
